Results from patent publication US20190367580A1 (DUCENTIS BIOTHERAPEUTICS, published 2019).
Substitutions are numbered along the chain they refer to. In names and notes the source's numbering stands.

T1: Recombinant Human CD200R, His tagged (human, UniProt Q8TD46 25-266, limits assumed)
T1 construct: Bought reagent, soluble analyte in SPR; also called hCD200R; CD200 receptor; not shown: His tag
T1 sequence (looked up): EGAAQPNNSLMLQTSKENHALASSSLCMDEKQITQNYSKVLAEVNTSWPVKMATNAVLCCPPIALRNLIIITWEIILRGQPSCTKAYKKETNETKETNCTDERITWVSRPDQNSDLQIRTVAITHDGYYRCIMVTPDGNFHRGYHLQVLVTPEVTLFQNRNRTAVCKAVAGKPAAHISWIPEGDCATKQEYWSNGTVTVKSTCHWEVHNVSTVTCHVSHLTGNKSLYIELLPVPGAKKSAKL

B1: wild-type CD200-Fc (Fc fusion)
chain: QVQVVTQDEREQLYTPASLKCSLQNAQEALIVTWQKKKAVSPENMVTFSENHGVVIQPAYKDKINITQLGLQNSTITFWNITLEDEGCYMCLFNTFGFGKISGTACLTVYVQPIVSLHYKFSEDHLNITCSATARPAPMVFWKVPRSGIENSTVTLSHPNGTTSVTSILHIKDPKNQVGKEVICQVLHLGTVTDFKQTVNKGGGGSGGGGS[letters of human IgG1 Fc omitted]
notes: Made in ExpiCHO cells; also called WT; WT-CD200-Fc
B2: F128R mutant CD200-Fc (Fc fusion)
chain: B1 chain with F98R
B3: G129I mutant CD200-Fc (Fc fusion)
chain: B1 chain with G99I
B4: I131Y mutant CD200-Fc (Fc fusion)
chain: B1 chain with I101Y
B5: K130Y mutant CD200-Fc (Fc fusion)
chain: B1 chain with K100Y
B6: N81K mutant CD200-Fc (Fc fusion)
chain: B1 chain with N51K

Each binder was assayed against T1, Recombinant Human CD200R, His tagged (assay: SPR (Biacore T200), CD200-Fc captured by anti-human Fc, CD200R-His as analyte, 1:1 Langmuir fit).
Experimental: (§1) Anti-human Fc was covalently immobilized on a BIAcore CM5 sensor chip by amine coupling using a GE Healthcare kit following the manufacturer's instructions. Maximum immobilization target was set between 10000-15000 RU. […] Flow cell 1 was used as a reference, with no immobilized ligand, to permit deduction of non-specific binding to the chip surface. The Fc-ligands were diluted to 0.5 μg/mL in BIAcore running buffer (HBS-EP+: 10 mM HEPES buffered saline containing 2 mM EDTA and 0.05% surfactant P-20). In the final immobilization step, wild-type CD200-Fc, mutant CD200-Fc and un-related control protein (Herceptin/Trastuzumab) were passed over the chip (using flow cells 2, 3 and 4 respectively), for 120 seconds, at a concentration giving rise to a minimum of 250 response units (RU), followed by stabilization of the surface for 120 seconds in running buffer. The CD200-Fc capture procedure was repeated for every CD200R concentration.
(§2) Following capture of the Fc-tagged proteins, CD200R (at different concentrations) was flowed over the captured CD200-Fc and control proteins for 120 seconds (to observe association), followed by 120 seconds of running buffer (to observe dissociation). The chip surface was then regenerated using 10 mM Glycine-HCl (pH 2) for 30 seconds (30 μL/min flow rate) followed by stabilization of the surface for 60 seconds with BIAcore running buffer before the next cycle.
For B1, the Kd was 111 nM, the koff was 0.027 s⁻¹ and the kon was 240000 M⁻¹ s⁻¹.
With B2 the Kd was 109 nM, the koff was 0.018 s⁻¹ and the kon was 163000 M⁻¹ s⁻¹.
In the case of B3, the Kd is reported as 108 nM and the koff is reported as 0.017 s⁻¹.
Work on B4 yielded a Kd of 49 nM, a koff of 0.0091 s⁻¹ and a kon of 180000 M⁻¹ s⁻¹.
In the case of B5, the Kd is reported as 8.07 nM, the koff is reported as 0.0032 s⁻¹ and the kon is reported as 400000 M⁻¹ s⁻¹.
B6 gave a Kd of 101 nM, a koff of 0.021 s⁻¹ and a kon of 207000 M⁻¹ s⁻¹.

These binders were tested against T1, Recombinant Human CD200R, His tagged (assay: SPR (Biacore T200), half-life calculated as 0.693/koff).
Experimental: as §1, §2
It is clear from comparison of the sensorgrams in FIG. 5 that K130Y binds to the CD200 receptor with greater affinity and a slower off rate than wild-type CD200-Fc. Table 2 records the on rates (M⁻¹s⁻¹), off rates (s⁻¹) and binding affinity values (nM) for wild-type and mutant CD200-Fc molecules: WT, K130Y, I131Y, G129I, F128R, N81K. Half-lives were calculated using the relationship t_{1/2} (s)=0.693/koff(s⁻¹).
In the case of B1, the “t ½” value is reported as 25.6 s.
In the case of B2, the “t ½” value is reported as 39.2 s.
In the case of B3, the “t ½” value is reported as 40.8 s.
In the case of B4, the “t ½” value is reported as 76.6 s.
With B5 the “t ½” value was 217 s.
In the case of B6, the “t ½” value is reported as 32.7 s.
